According to the supplement of paper PMC3334620:
In all, about 33,000 sequences were measured (“E-score (-0.5 to 0.5)”: median about -0.043, highest 2% from about 0.37 on). The list shows a part of the results.

molecular target: T1, Upc2 (UniProt Q12151); assay: PBM E-score (8-mer binding enrichment) (E-score (-0.5 to 0.5)); higher = stronger / more preferred TF binding; most listed sequences are background and not binding sites; conditions: protein concentration: 200 nM; construct: GST-full length
T1 sequence: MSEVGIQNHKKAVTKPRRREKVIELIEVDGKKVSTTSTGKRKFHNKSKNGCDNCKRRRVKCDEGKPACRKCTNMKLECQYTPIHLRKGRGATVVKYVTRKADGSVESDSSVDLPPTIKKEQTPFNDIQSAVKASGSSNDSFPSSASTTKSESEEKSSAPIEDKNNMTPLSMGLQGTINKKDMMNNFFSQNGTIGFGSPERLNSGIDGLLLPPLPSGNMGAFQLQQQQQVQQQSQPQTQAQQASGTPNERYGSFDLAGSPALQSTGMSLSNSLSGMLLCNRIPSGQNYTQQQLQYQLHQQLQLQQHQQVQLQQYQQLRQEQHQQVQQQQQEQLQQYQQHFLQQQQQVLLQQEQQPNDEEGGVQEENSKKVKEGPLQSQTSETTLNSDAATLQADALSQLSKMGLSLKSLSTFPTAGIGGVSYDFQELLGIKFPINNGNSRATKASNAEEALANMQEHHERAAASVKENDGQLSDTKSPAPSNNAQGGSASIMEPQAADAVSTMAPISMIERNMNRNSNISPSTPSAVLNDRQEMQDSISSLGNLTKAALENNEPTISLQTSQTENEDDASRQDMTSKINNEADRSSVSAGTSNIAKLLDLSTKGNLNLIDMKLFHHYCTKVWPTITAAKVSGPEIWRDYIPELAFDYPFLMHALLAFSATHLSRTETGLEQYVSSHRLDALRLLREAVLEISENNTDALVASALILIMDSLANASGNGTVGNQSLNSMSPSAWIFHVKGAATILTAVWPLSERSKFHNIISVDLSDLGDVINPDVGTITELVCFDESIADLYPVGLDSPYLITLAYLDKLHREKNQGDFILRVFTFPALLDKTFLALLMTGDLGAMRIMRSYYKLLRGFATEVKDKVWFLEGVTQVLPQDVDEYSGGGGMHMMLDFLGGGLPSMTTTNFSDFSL
Protocol: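 Universal 'all 10-mer' protein binding microarrays (Agilent AMADID 015681) probed with GST-tagged S. cerevisiae TFs (full-length or DBD) made by in vitro transcription/translation (PURExpress), about 100-200 nM. Bound TF was detected with fluorescent anti-GST. Each ungapped 8-mer (which stands for itself and its reverse complement) is scored by the PBM enrichment score (E-score), a modified Wilcoxon-Mann-Whitney statistic from -0.5 to +0.5, computed with the Universal PBM Analysis Suite. Scale: above 0.35 generally sequence-specific binding.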

Row | Sequence | PBM E-score
1 | AACAATGT | -0.0161
2 | CGATTCGA | 0.0594
3 | CCGCGCAA | -0.199
4 | AATGCCCC | -0.0337
5 | ACACTAGT | 0.0847
6 | CCACCCGG | -0.0905
7 | AACAAACT | 0.0644
8 | ACTCAAAG | 0.0201
9 | CAAACGAA | 0.467
10 | ATGAGGTC | -0.191
11 | AGTGGTCA | -0.0559
12 | CCGGATGA | -0.194
13 | AAGCGTGA | -0.112
14 | AGCAAGCC | -0.133
15 | CCTCGACC | -0.142
16 | CTCAGCGA | 0.0521
17 | CTTTAATA | 0.00229
18 | ACATGCAG | 0.0224
19 | CTACCGAG | -0.028
20 | CTAGTGGC | -0.243
21 | AACAGGTA | -0.0326
22 | AATAGGCC | -0.0987
23 | AGACAAAC | 0.0723
24 | CGTCGAAC | 0.0511

Row | Sequence | PBM E-score
25 | AGAGCCAT | -0.0158
26 | GCCAGTCC | -0.191
27 | CTGCACTC | -0.0503
28 | AGACCCCG | -0.121
29 | CAGTTCCG | -0.0552
30 | AAATTTGG | -0.174
31 | ATAAGCGC | 0.0548
32 | ATGAGTCC | -0.189
33 | ACTGTTTC | -0.111
34 | AGCCCGAC | -0.171
35 | ACCTATCT | -0.16
36 | GACCCCTA | -0.252
37 | GATCGAGC | 0.0552
38 | CCCACGTC | -0.139
39 | GACAAAGC | 0.0238
40 | AATGAGGG | -0.16
41 | CTTGCACA | -0.188
42 | CGCGGCAG | -0.175
43 | GTTGTCTA | -0.0647
44 | ATCGACAG | -0.0101
45 | CACACAGA | -0.19
46 | AGCCTAAG | -0.151
47 | TATCGATA | -0.144
48 | ACCTGGAT | -0.137

Row | Sequence | PBM E-score
49 | GGAGTAGA | -0.07
50 | ACGCGTAT | 0.333
51 | ACTGTCCA | -0.0712
52 | CCAAGACG | -0.201
53 | CTTGTCGA | -0.0213
54 | AGCTGGTC | -0.0412
55 | AACCTATA | 0.0515
56 | CGTCTAAG | -0.00419
57 | AATCTCAT | 0.112
58 | CTAGGGGA | -0.261
59 | CAGTCACA | -0.0909
60 | CCGTCTGC | -0.179
61 | AAATGTCG | -0.027
62 | AGCCAAAT | 0.0673
63 | TATTACAA | -0.0303
64 | ACAACGAG | 0.257
65 | ATGCGGTA | -0.0698
66 | TCGTCGCA | 0.169
67 | GAGCTGCC | -0.092
68 | CGGAAAGA | 0.0878
69 | CCAAACTA | -0.124
70 | AACGAACT | 0.371
71 | GACACTGC | -0.0962
72 | CCATAACC | 0.0368

Row | Sequence | PBM E-score
73 | AAGGAGCA | -0.202
74 | CACAATCC | -0.133
75 | CTCGACAG | -0.0352
76 | ATTTTTAG | -0.265
77 | ACTCACGA | 0.00947
78 | CTGGTGTC | -0.0199
79 | TGATCACA | -0.161
80 | AGCAATGA | -0.235
81 | GGAGTTCA | -0.0689
82 | AGCAACGG | -0.0326
83 | ATGAGGCG | -0.181
84 | ATCGGTTG | 0.0684
85 | ACGATAGT | 0.308
86 | CTGGGGGC | -0.204
87 | TAGAACTA | -0.00975
88 | CGGCAATA | 0.108
89 | AGCCAGGC | -0.163
90 | CCTACGTA | 0.3
91 | CTGGATCA | -0.225
92 | AAATGGCG | -0.0033
93 | CGAATTCA | 0.0713
94 | GGAATTGA | -0.0637
